Measured values from PMC9911399, “Two distinct binding modes provide the RNA-binding protein RbFox with extraordinary sequence specificity”.
Positions count from the first letter of the chain named. Some of the results follow.

T1: RBFOX1 RRM (Homo sapiens, UniProt Q9NWB1 109-208)
T1 sequence: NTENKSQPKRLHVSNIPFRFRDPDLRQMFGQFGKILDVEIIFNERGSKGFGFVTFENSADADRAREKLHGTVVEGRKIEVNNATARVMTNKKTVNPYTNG

B1: AUCCCCU (DNA:RNA)
RNA: GGGAGACCGGAAUUCAGAUUGUCCAUCCCCUUUAAAUCCCGUCGUAGCCACCA
DNA 1: CAATCTGAATTCCGGTCTCCC
DNA 2: TGGTGGCTACGACGGGATT
B2: UCGAUCC (DNA:RNA)
RNA: B1 RNA with A25U, U26C, C27G, C28A, C29U, U31C
DNA 1: CAATCTGAATTCCGGTCTCCC
DNA 2: TGGTGGCTACGACGGGATT
B3: CAGGAAA (DNA:RNA)
RNA: GGGAGACCGGAAUUCAGAUUGUCCCAGGAAAUUAAAUCCCGUCGUAGCCACCA
DNA 1: CAATCTGAATTCCGGTCTCCC
DNA 2: TGGTGGCTACGACGGGATT
B4: AAGCGCA (DNA:RNA)
RNA: B1 RNA with U26A, C27G, C29G, U31A
DNA 1: CAATCTGAATTCCGGTCTCCC
DNA 2: TGGTGGCTACGACGGGATT
B5: AAAUUAC (DNA:RNA)
RNA: B3 RNA with C25A, G27A, G28U, A29U, A31C
DNA 1: CAATCTGAATTCCGGTCTCCC
DNA 2: TGGTGGCTACGACGGGATT
B6: GGUAACA (DNA:RNA)
RNA: B3 RNA with C25G, A26G, G27U, G28A, A30C
DNA 1: CAATCTGAATTCCGGTCTCCC
DNA 2: TGGTGGCTACGACGGGATT
B7: CAUAUAU (DNA:RNA)
RNA: B3 RNA with G27U, G28A, A29U, A31U
DNA 1: CAATCTGAATTCCGGTCTCCC
DNA 2: TGGTGGCTACGACGGGATT
B8: UGAUCCA (DNA:RNA)
RNA: B1 RNA with A25U, U26G, C27A, C28U, U31A
DNA 1: CAATCTGAATTCCGGTCTCCC
DNA 2: TGGTGGCTACGACGGGATT
B9: CCGUUUC (DNA:RNA)
RNA: B3 RNA with A26C, G28U, A29U, A30U, A31C
DNA 1: CAATCTGAATTCCGGTCTCCC
DNA 2: TGGTGGCTACGACGGGATT
B10: GAAUCGU (DNA:RNA)
RNA: B1 RNA with A25G, U26A, C27A, C28U, C30G
DNA 1: CAATCTGAATTCCGGTCTCCC
DNA 2: TGGTGGCTACGACGGGATT
B11: GACAUCC (DNA:RNA)
RNA: B1 RNA with A25G, U26A, C28A, C29U, U31C
DNA 1: CAATCTGAATTCCGGTCTCCC
DNA 2: TGGTGGCTACGACGGGATT
B12: AUUAGGU (DNA:RNA)
RNA: B1 RNA with C27U, C28A, C29G, C30G
DNA 1: CAATCTGAATTCCGGTCTCCC
DNA 2: TGGTGGCTACGACGGGATT
B13: ACUGAAG (DNA:RNA)
RNA: B3 RNA with C25A, A26C, G27U, A31G
DNA 1: CAATCTGAATTCCGGTCTCCC
DNA 2: TGGTGGCTACGACGGGATT
B14: CCCUUUC (DNA:RNA)
RNA: B1 RNA with A25C, U26C, C28U, C29U, C30U, U31C
DNA 1: CAATCTGAATTCCGGTCTCCC
DNA 2: TGGTGGCTACGACGGGATT
B15: AUUCUCC (DNA:RNA)
RNA: B1 RNA with C27U, C29U, U31C
DNA 1: CAATCTGAATTCCGGTCTCCC
DNA 2: TGGTGGCTACGACGGGATT
B16: AUAUAAU (DNA:RNA)
RNA: B1 RNA with C27A, C28U, C29A, C30A
DNA 1: CAATCTGAATTCCGGTCTCCC
DNA 2: TGGTGGCTACGACGGGATT
B17: AUGAUUG (DNA:RNA)
RNA: B1 RNA with C27G, C28A, C29U, C30U, U31G
DNA 1: CAATCTGAATTCCGGTCTCCC
DNA 2: TGGTGGCTACGACGGGATT
B18: AGGACGC (DNA:RNA)
RNA: B1 RNA with U26G, C27G, C28A, C30G, U31C
DNA 1: CAATCTGAATTCCGGTCTCCC
DNA 2: TGGTGGCTACGACGGGATT
B19: CCGGUGC (DNA:RNA)
RNA: B3 RNA with A26C, A29U, A30G, A31C
DNA 1: CAATCTGAATTCCGGTCTCCC
DNA 2: TGGTGGCTACGACGGGATT
B20: CGAUUCG (DNA:RNA)
RNA: B1 RNA with A25C, U26G, C27A, C28U, C29U, U31G
DNA 1: CAATCTGAATTCCGGTCTCCC
DNA 2: TGGTGGCTACGACGGGATT

These binders were tested against T1, RBFOX1 RRM (assay: EMSA; HiTS-Eq, 1 nM pool, 10 min; buffer printed only for the single-RNA assays: 10 mM Tris pH 7.5, 150 mM NaCl, 3.4 mM EDTA, 0.001% NP-40, 30 C). Conditions: tags: His6 N-terminal (pET28a); label: 5' 32P.
In short: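 Purified RbFox RRM (wild type or mutant) was equilibrated for 10 min in 50 µL with 1 nM of a 5′-radiolabelled pool of RNA with 7 randomized nucleotides, its flanks annealed to DNA oligonucleotides, across increasing protein concentrations. Free RNA was separated by 8% native PAGE, excised, reverse-transcribed, PCR-barcoded and sequenced on an Illumina HiSeq 2500. Relative association constants came from read-count changes of each variant against the control reaction, normalised to the cognate motif.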
B1 was tested, and the binding signal was 0.00188 KA relative to UGCAUGU.
In the case of B2, the binding signal is reported as 0.00757 KA relative to UGCAUGU.
For B3, the binding signal was 0.0109 KA relative to UGCAUGU.
For B4, the binding signal was 0.0101 KA relative to UGCAUGU.
B5 was tested, and the binding signal was 0.0013 KA relative to UGCAUGU.
For B6, the binding signal was 0.00638 KA relative to UGCAUGU.
In the case of B7, the binding signal is reported as 0.000422 KA relative to UGCAUGU.
In the case of B8, the binding signal is reported as 0.0051 KA relative to UGCAUGU.
For B9, the binding signal was 0.0116 KA relative to UGCAUGU.
B10 was tested, and the binding signal was 0.0117 KA relative to UGCAUGU.
With B11 the binding signal was 0.00414 KA relative to UGCAUGU.
With B12 the binding signal was 0.0079 KA relative to UGCAUGU.
In the case of B13, the binding signal is reported as 0.0117 KA relative to UGCAUGU.
In the case of B14, the binding signal is reported as 0.00899 KA relative to UGCAUGU.
With B15 the binding signal was 0.00179 KA relative to UGCAUGU.
With B16 the binding signal was 0.0019 KA relative to UGCAUGU.
In the case of B17, the binding signal is reported as 0.0164 KA relative to UGCAUGU.
For B18, the binding signal was 0.0193 KA relative to UGCAUGU.
In the case of B19, the binding signal is reported as 0.0149 KA relative to UGCAUGU.
For B20, the binding signal was 0.0156 KA relative to UGCAUGU.
